Assay results as given in the supplement of paper PMC4604168 (melanoma cell lines).
The list shows a part of the results. Most values come without repeats; read them as rough.

System: WM115
Test: cell count relative to DMSO control; melanoma cells; higher = more viable cells
Details: library dose: low library concentration; 72 h
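Also: cell number obtained by counting DAPI-stained nuclei in high-throughput microscope images with image analysis software, screen run in 1,536-well plates.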

**Q.** Which cell count does the source give for `C[C@]1(c2nc3c(C(N)=O)cccc3[nH]2)CCCN1` [Veliparib] + O=C(O)C(=O)Nc1sc2c(c1C(=O)O)CCNC2 [TCS401] (first compound 1.4 µM, partner dose 1.66667 µM) here?
**A.** The cell count was 85.6%.

**Q.** For `CO[C@@H]1[C@H](N(C)C(=O)c2ccccc2)C[C@H]2O[C@]1(C)n1c3ccccc3c3c4c(c5c6ccccc6n2c5c31)C(=O)NC4` [Midostaurin] + NC(=O)Nc1cc(-c2cccc(F)c2)sc1C(=O)N[C@H]1CCCNC1 [AZD7762] (first compound 0.08 µM, partner dose 0.02 µM), which cell count is on record?
**A.** The cell count was 78.5%.

**Q.** Which cell count does the source give for `CN(C)S(=O)(=O)c1ccc2c(c1)/C(=C/c1cc3c([nH]1)CCCC3)C(=O)N2` + CN(NC(=O)CC(=O)NN(C)C(=S)c1ccccc1)C(=S)c1ccccc1 [STA4783] (first compound 0.4 µM, partner dose 0.006 µM) here?
**A.** The cell count was 65.4%.

**Q.** With `CO[C@@H]1[C@H](N(C)C(=O)c2ccccc2)C[C@H]2O[C@]1(C)n1c3ccccc3c3c4c(c5c6ccccc6n2c5c31)C(=O)NC4` [Midostaurin] + CC(C)CCN1c2nc(Nc3cc(F)c(O)c(F)c3)ncc2N(C)C(=O)C1C [BID1870] (first compound 0.08 µM, partner dose 0.2 µM) as the compound, how does the cell count read?
**A.** Its cell count is 84.8%.

**Q.** With `C=CCn1c(=O)c2cnc(Nc3ccc(N4CCN(C)CC4)cc3)nc2n1-c1cccc(C(C)(C)O)n1` + COc1cc2c(Oc3ccc4[nH]c(C)cc4c3F)ncnc2cc1OCCCN1CCCC1 [cediranib] (first compound 0.02 µM, partner dose 0.4 µM) as the compound, how does the cell count read?
**A.** Its cell count is 81%.

**Q.** `CO[C@@H]1[C@H](N(C)C(=O)c2ccccc2)C[C@H]2O[C@]1(C)n1c3ccccc3c3c4c(c5c6ccccc6n2c5c31)C(=O)NC4` [Midostaurin] + O=C(O)c1ccc(-c2c[nH]c3ncc(-c4ccccc4)cc23)cc1C1CCCC1 [GSK650394] (first compound 0.08 µM, partner dose 0.16 µM) was tested. Which cell count did it give?
**A.** The cell count was 89.1%.

**Q.** `C=CCn1c(=O)c2cnc(Nc3ccc(N4CCN(C)CC4)cc3)nc2n1-c1cccc(C(C)(C)O)n1` + Cc1ccc(NC(=O)c2cccc(N(C)C)c2)cc1NC(=O)c1ccc(O)cc1 [ZM336372] (first compound 0.02 µM, partner dose 2 µM) was tested. Which cell count did it give?
**A.** Its cell count is 81.5%.

**Q.** For `CO[C@@H]1[C@H](N(C)C(=O)c2ccccc2)C[C@H]2O[C@]1(C)n1c3ccccc3c3c4c(c5c6ccccc6n2c5c31)C(=O)NC4` [Midostaurin] + CN(C)S(=O)(=O)c1ccc2c(c1)/C(=C/c1cc3c([nH]1)CCCC3)C(=O)N2 [SU6656] (first compound 0.08 µM, partner dose 0.4 µM), which cell count is on record?
**A.** The cell count was 56.1%.

**Q.** For `NC(=O)Nc1cc(-c2cccc(F)c2)sc1C(=O)N[C@H]1CCCNC1` + Oc1cc(-c2nc(-c3ccccc3)[nH]c2-c2ccncc2)ccc1Cl [L779450] (first compound 0.02 µM, partner dose 0.2 µM), which cell count is on record?
**A.** Its cell count is 77%.

System: WM1716
Test: as above
Details: library dose: low library concentration; 72 h

**Q.** Which cell count does the source give for `CN(C)S(=O)(=O)c1ccc2c(c1)/C(=C/c1cc3c([nH]1)CCCC3)C(=O)N2` + O=C(O)c1ccc(-c2c[nH]c3ncc(-c4ccccc4)cc23)cc1C1CCCC1 [GSK650394] (first compound 0.4 µM, partner dose 0.16 µM) here?
**A.** Its cell count is 116%.

**Q.** Which cell count does the source give for `CO[C@@H]1[C@H](N(C)C(=O)c2ccccc2)C[C@H]2O[C@]1(C)n1c3ccccc3c3c4c(c5c6ccccc6n2c5c31)C(=O)NC4` [Midostaurin] + O=C(Nc1cccc(Cl)c1)Nc1ncc(CCNc2ncnc3ccsc23)s1 [SNS314] (first compound 0.08 µM, partner dose 0.0008 µM) here?
**A.** Its cell count is 62.9%.

**Q.** `C=CCn1c(=O)c2cnc(Nc3ccc(N4CCN(C)CC4)cc3)nc2n1-c1cccc(C(C)(C)O)n1` + OCCn1cc(-c2cnc3nnn(Cc4ccc5ncccc5c4)c3n2)cn1 [PF04217903] (first compound 0.02 µM, partner dose 1 µM) was tested. Which cell count did it give?
**A.** Its cell count is 91.9%.

**Q.** For `C[C@]1(c2nc3c(C(N)=O)cccc3[nH]2)CCCN1` [Veliparib] + COc1ccc2c(c1)CCC1C2CCC2(C)C(NCCCCCCN3C(=O)C=CC3=O)CCC12 [U73122] (first compound 1.4 µM, partner dose 0.4 µM), which cell count is on record?
**A.** Its cell count is 75.2%.

**Q.** How did the cell count turn out when `CO[C@@H]1[C@H](N(C)C(=O)c2ccccc2)C[C@H]2O[C@]1(C)n1c3ccccc3c3c4c(c5c6ccccc6n2c5c31)C(=O)NC4` [Midostaurin] + Cc1cc([N+](=O)[O-])ccc1NS(=O)(=O)c1cc(Cl)ccc1Cl [FH535] (first compound 0.08 µM, partner dose 1 µM) was run?
**A.** Its cell count is 75.2%.

**Q.** For `NC(=O)Nc1cc(-c2cccc(F)c2)sc1C(=O)N[C@H]1CCCNC1` + CCCCCCCCCCCC1=C(O)C(=O)C=C(O)C1=O [Embelin] (first compound 0.02 µM, partner dose 1.2 µM), which cell count is on record?
**A.** Its cell count is 98.2%.

**Q.** `CO[C@@H]1[C@H](N(C)C(=O)c2ccccc2)C[C@H]2O[C@]1(C)n1c3ccccc3c3c4c(c5c6ccccc6n2c5c31)C(=O)NC4` [Midostaurin] + CCN(CC)CCCCNc1ncc2cc(-c3cc(OC)cc(OC)c3)c(NC(=O)NC(C)(C)C)nc2n1 [PD173074] (first compound 0.08 µM, partner dose 0.1 µM) was tested. Which cell count did it give?
**A.** The cell count was 85.6%.

**Q.** `CO[C@@H]1[C@H](N(C)C(=O)c2ccccc2)C[C@H]2O[C@]1(C)n1c3ccccc3c3c4c(c5c6ccccc6n2c5c31)C(=O)NC4` [Midostaurin] + Cn1cncc1[C@@](N)(c1ccc(Cl)cc1)c1ccc2c(c1)c(-c1cccc(Cl)c1)cc(=O)n2C [tipifarnib] (first compound 0.08 µM, partner dose 0.01 µM) was tested. Which cell count did it give?
**A.** Its cell count is 64.6%.

**Q.** With `CO[C@@H]1[C@H](N(C)C(=O)c2ccccc2)C[C@H]2O[C@]1(C)n1c3ccccc3c3c4c(c5c6ccccc6n2c5c31)C(=O)NC4` [Midostaurin] + CN(NC(=O)CC(=O)NN(C)C(=S)c1ccccc1)C(=S)c1ccccc1 [STA4783] (first compound 0.08 µM, partner dose 0.006 µM) as the compound, how does the cell count read?
**A.** The cell count was 61.9%.

**Q.** `Cc1nc(Nc2ncc(C(=O)Nc3c(C)cccc3Cl)s2)cc(N2CCN(CCO)CC2)n1` [dasatanib] + CC(C)CCN1c2nc(Nc3cc(F)c(O)c(F)c3)ncc2N(C)C(=O)C1C [BID1870] (first compound 0.004 µM, partner dose 0.2 µM) was tested. Which cell count did it give?
**A.** The cell count was 76.4%.

**Q.** For `NC(=O)Nc1cc(-c2cccc(F)c2)sc1C(=O)N[C@H]1CCCNC1` + COC(=O)c1sccc1S(=O)(=O)Nc1ccc(Nc2ccccc2)cc1OC [GSK0660] (first compound 0.02 µM, partner dose 1 µM), which cell count is on record?
**A.** Its cell count is 95%.

**Q.** With `Cc1nc(Nc2ncc(C(=O)Nc3c(C)cccc3Cl)s2)cc(N2CCN(CCO)CC2)n1` [dasatanib] + NCC(=O)Nc1ccc(-n2nc(C(F)(F)F)cc2-c2ccc3c(ccc4ccccc43)c2)cc1 [OSU03012] (first compound 0.004 µM, partner dose 1 µM) as the compound, how does the cell count read?
**A.** Its cell count is 70.4%.

**Q.** With `NC(=O)Nc1cc(-c2cccc(F)c2)sc1C(=O)N[C@H]1CCCNC1` + O=C(O)C(=O)Nc1sc2c(c1C(=O)O)CCNC2 [TCS401] (first compound 0.02 µM, partner dose 1.66667 µM) as the compound, how does the cell count read?
**A.** Its cell count is 95.4%.

**Q.** With `OCCn1cc(-c2cnc3nnn(Cc4ccc5ncccc5c4)c3n2)cn1` + COc1ccc(COc2ccc(Cc3cnc(N)nc3N)cc2OC)cc1 [GW2580] (first compound 1 µM, partner dose 1 µM) as the compound, how does the cell count read?
**A.** Its cell count is 93.3%.

**Q.** `Cc1nc(Nc2ncc(C(=O)Nc3c(C)cccc3Cl)s2)cc(N2CCN(CCO)CC2)n1` [dasatanib] + O=C(Nc1ccccc1)c1cc([N+](=O)[O-])ccc1Cl [GW9662] (first compound 0.004 µM, partner dose 2 µM) was tested. Which cell count did it give?
**A.** The cell count was 84.8%.

**Q.** `NC(=O)Nc1cc(-c2cccc(F)c2)sc1C(=O)N[C@H]1CCCNC1` + COc1cc2ncnc(Nc3ccc(Oc4ccccc4)cc3)c2cc1OC [SrcI1] (first compound 0.02 µM, partner dose 2 µM) was tested. Which cell count did it give?
**A.** Its cell count is 102%.

**Q.** For `NC(=O)Nc1cc(-c2cccc(F)c2)sc1C(=O)N[C@H]1CCCNC1` + COc1cc2c(Oc3ccc4[nH]c(C)cc4c3F)ncnc2cc1OCCCN1CCCC1 [cediranib] (first compound 0.02 µM, partner dose 0.4 µM), which cell count is on record?
**A.** Its cell count is 100%.

**Q.** Which cell count does the source give for `C=CCn1c(=O)c2cnc(Nc3ccc(N4CCN(C)CC4)cc3)nc2n1-c1cccc(C(C)(C)O)n1` + N#Cc1c(O)c2c(-c3ccc(-c4ccccc4O)cc3)csc2[nH]c1=O [A769662] (first compound 0.02 µM, partner dose 2 µM) here?
**A.** Its cell count is 102%.

**Q.** Which cell count does the source give for `NC(=O)Nc1cc(-c2cccc(F)c2)sc1C(=O)N[C@H]1CCCNC1` + c1cc(-c2cnn3cc(-c4ccc(OCCN5CCCCC5)cc4)cnc23)ccn1 [Dorsomorphin] (first compound 0.02 µM, partner dose 0.4 µM) here?
**A.** Its cell count is 85%.

**Q.** Which cell count does the source give for `Cc1nc(Nc2ncc(C(=O)Nc3c(C)cccc3Cl)s2)cc(N2CCN(CCO)CC2)n1` [dasatanib] + O=C(CCCCCCC(=O)Nc1ccccc1)NO [vorinostat] (first compound 0.004 µM, partner dose 0.08 µM) here?
**A.** The cell count was 86.3%.

**Q.** How did the cell count turn out when `Cc1nc(Nc2ncc(C(=O)Nc3c(C)cccc3Cl)s2)cc(N2CCN(CCO)CC2)n1` [dasatanib] + Nc1cccc2c1CN(C1CCC(=O)NC1=O)C2=O [lenalidomide] (first compound 0.004 µM, partner dose 1 µM) was run?
**A.** The cell count was 76.6%.
